Among all 48,000 compounds or so, about 550 (1.1%) were called active. About 4% were inconclusive and are not listed. Rule as the data show it: active = potency below about 15 µM; inconclusive = mostly about 16 µM to 33 µM; inactive = weaker than that. The list shows a part of the results.

Among the data in PubChem BioAssay AID360 (National Center for Advancing Translational Sciences (NCATS), 2006) are Potency values, retold here.
Potency is read from the fitted curve at half-maximal effect.

UniProt P04062, sequence (P04062 whole entry, looked up): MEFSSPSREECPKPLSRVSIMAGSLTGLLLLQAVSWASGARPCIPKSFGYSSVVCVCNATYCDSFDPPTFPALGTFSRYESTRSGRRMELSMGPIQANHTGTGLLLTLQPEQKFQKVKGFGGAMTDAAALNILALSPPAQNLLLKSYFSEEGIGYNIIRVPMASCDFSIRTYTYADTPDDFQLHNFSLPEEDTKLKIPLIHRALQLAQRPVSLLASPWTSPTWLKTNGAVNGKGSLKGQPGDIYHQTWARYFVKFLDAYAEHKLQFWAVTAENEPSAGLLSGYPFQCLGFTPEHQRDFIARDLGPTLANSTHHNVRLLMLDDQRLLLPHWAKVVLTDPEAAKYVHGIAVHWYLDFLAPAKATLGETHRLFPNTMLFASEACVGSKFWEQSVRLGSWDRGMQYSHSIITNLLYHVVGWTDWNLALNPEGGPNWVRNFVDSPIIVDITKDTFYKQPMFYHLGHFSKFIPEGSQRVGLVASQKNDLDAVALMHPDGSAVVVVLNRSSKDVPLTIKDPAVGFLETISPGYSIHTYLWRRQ

The experiment deals with Lysosomal acid glucosylceramidase (Homo sapiens) (UniProt P04062). In words: Glucocerebrosidase.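 Also: the screen sought inhibitors.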 The settings on record: purified enzyme, resorufin glucoside fluorescence (screen aimed at inhibitors), 20 min; series mostly up to 77 µM. The method, boiled down:
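Wild-type enzyme at 0.2 nM final in 50mM citric acid/KH2PO4, 10mM sodium taurocholate, 0.01% tween-20, pH 5.9, with resorufin beta-D-glucopyranoside at 30 uM final. Compounds titrated, 20 min at RT, red fluorescence read; AC50 from titration.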
Turning to `c1ccc(OCCOc2ncnc3sccc23)cc1`, the Potency was inactive: > 76.9 µM.

Regarding `COC(=O)CC1Nc2ccccc2SC1=O` (stereo unspecified), the Potency is inactive: > 76.9 µM.

With `CN(c1cccc(NS(=O)(=O)c2cccs2)c1)S(C)(=O)=O`, the Potency was inactive: > 76.9 µM.

For `Cc1occc1-c1nnc(SCC(=O)N2CC(=O)Nc3ccccc32)n1CC(C)C`, the Potency was inactive: > 76.9 µM.

In the case of `CNC(=O)Nc1cccc(C(F)(F)F)c1`, the Potency was inactive: > 76.9 µM.

For `COc1c(Br)cc(Br)cc1/C=N/n1c(C)nnc1C`, the Potency is inactive: > 76.9 µM.

Take `Cc1ccc(S(=O)(=O)NCCCCCC(=O)Nc2nccs2)cc1`: the Potency is inactive: > 76.9 µM.

For `COc1cc2[nH]c(=O)n(Cc3ccc(C(=O)NCC4CCCO4)cc3)c(=O)c2cc1OC` (stereo unspecified), the Potency was inactive: > 76.9 µM.

`Cc1ccc(C(=O)CCC2CCCC2=O)cc1` (stereo unspecified): the Potency was inactive: > 76.9 µM.

In the case of `Cc1ccc(CN(C)C(=O)C2CCCN2C(=O)c2cccs2)o1` (stereo unspecified), the Potency was inactive: > 76.9 µM.

Regarding `Cc1ccnc(SCCn2c(N3CC(C)CC(C)C3)nc3c2c(=O)n(C)c(=O)n3C)n1` (stereo unspecified), the Potency was inactive: > 76.9 µM.

Regarding `Cc1cccc2cc(COC(=O)c3ccco3)c(=O)[nH]c12`, the Potency was inactive: > 76.9 µM.

On to `C/C(N)=C(/C#N)C(=O)CSc1nnc(-c2ccc(OC(F)F)cc2)o1`, for which the Potency is inactive: > 76.9 µM.

On to `O=C(NCC1CCCO1)c1cnn2c1NC(c1ccccc1)CC2C(F)(F)F` (stereo unspecified), for which the Potency is inactive: > 76.9 µM.

`NC(=O)Cn1c(=O)n(CCCC(=O)NC2CCN(Cc3ccccc3)CC2)c(=O)c2ccccc21`: the Potency is inactive: > 76.9 µM.

As for `O=C1c2ccccc2CC1Sc1nnc(-c2ccncc2)o1` (stereo unspecified), the Potency is inactive: > 76.9 µM.

With `COc1ccc(NC(=O)c2coc3ccccc23)cc1OC`, the Potency was inactive: > 76.9 µM.

On to `Cc1ccc2cc(C(c3nnnn3C(C)(C)C)N3CCCCCC3)c(=O)[nH]c2c1` (stereo unspecified), for which the Potency is inactive: > 76.9 µM.

Regarding `CCN1C(=O)CC(N2CCC(Cc3ccccc3)CC2)C1=O` (stereo unspecified), the Potency is inactive: > 76.9 µM.

For the compound `CSc1nsc(SCC(=O)Nc2cccc(C(C)=O)c2)n1`, the Potency is inactive: > 76.9 µM.

`CC(C)n1c(SCc2cc(=O)[nH]c3ccccc23)nc2c1c(=O)n(C)c(=O)n2C`: the Potency was inactive: > 76.9 µM.

On to `COc1ccc(-n2nc3c(c2NC(=O)c2cc4ccccc4oc2=O)CS(=O)(=O)C3)cc1`, for which the Potency was inactive: > 76.9 µM.

In the case of `O=c1cc(CSc2nnc(-c3ccco3)o2)c2ccccc2[nH]1`, the Potency was inactive: > 76.9 µM.

For the compound `COCCOC(=O)CC1=NC(=O)CS1`, the Potency is inactive: > 76.9 µM.

Consider `O=C(CSc1nnc(Cc2ccccc2)o1)NC1CCCCC1`, for which the Potency is inactive: > 76.9 µM.

`CCOC(=O)CNC(=O)CSc1nnc(Cn2cnc3ccccc32)n1C`: the Potency was inactive: > 76.9 µM.

`Cc1nn(-c2ccccc2)c2[nH]c(=O)c(CNCC3CCCO3)cc12` (stereo unspecified): the Potency is inactive: > 76.9 µM.

Take `CC1CN(S(=O)(=O)c2ccc(NC(=O)CCCN3C(=O)c4ccccc4C3=O)cc2)CC(C)O1` (stereo unspecified): the Potency is inactive: > 76.9 µM.

On to `Fc1ccc(-c2nnc(CN3CCC(c4nc5ccccc5s4)CC3)o2)cc1`, for which the Potency is inactive: > 76.9 µM.

On to `O=C(Cc1cccs1)N1CCC(c2nc3c(nnn3Cc3ccccc3)c(=O)[nH]2)CC1`, for which the Potency was inactive: > 76.9 µM.

In the case of `Clc1ccccc1-c1nnn(Cc2ccc(-c3nn[nH]n3)cc2)n1`, the Potency was inactive: > 76.9 µM.

Turning to `COCCCNC(=O)CCc1nc2cccnc2n1Cc1ccccc1`, the Potency was inactive: > 76.9 µM.

With `O=C(CSc1ccccn1)Nc1ccc(Br)cn1`, the Potency was inactive: > 76.9 µM.

On to `CCOC(=O)CCCCC(=O)c1[nH]c(=O)[nH]c1CSc1nc(C)cc(=O)[nH]1`, for which the Potency was inactive: > 76.9 µM.

For `COCCNS(=O)(=O)c1cc(OC)c(Cl)cc1Cl`, the Potency is inactive: > 76.9 µM.

Regarding `CCOC(=O)c1ccc(NC(=O)c2ccc(NS(C)(=O)=O)cc2)cc1`, the Potency was inactive: > 76.9 µM.

Consider `COc1cc(S(=O)(=O)N2CCOCC2)ccc1F`, for which the Potency was inactive: > 76.9 µM.

In the case of `Cc1c(CN(C)C(=O)CSc2nc(-c3ccco3)cc(C(F)(F)F)n2)cnn1C`, the Potency is inactive: > 76.9 µM.

For `Cc1nnc(SC(C)C(=O)Nc2ccc(Cl)cn2)n1Cc1ccccc1` (stereo unspecified), the Potency was inactive: > 76.9 µM.

Regarding `CN(c1ccccc1C(=O)NCC1CCCO1)S(C)(=O)=O` (stereo unspecified), the Potency was inactive: > 76.9 µM.

Regarding `CC1(C)Cc2nc(N)c(=O)sc2C1`, the Potency was inactive: > 76.9 µM.

Consider `CCCOC1(NC(=O)c2ccccc2)C(C)=CC(=O)C=C1C`, for which the Potency was inactive: > 76.9 µM.

For `COCCN(CC(=O)NCC1CCCO1)C(=O)CCC(=O)Nc1cc(C)on1` (stereo unspecified), the Potency was inactive: > 76.9 µM.

On to `O=C(O)c1[nH]nc2c1COc1ccccc1-2`, for which the Potency is inactive: > 76.9 µM.

With `COCCNC(=O)CN1CCC(NC(=O)Nc2ccc(C(F)(F)F)cc2)CC1`, the Potency is inactive: > 76.9 µM.

With `CCCCC(=NCCO)C1=C(O)C(C(=O)OC)C(C)(C)CC1=O` (stereo unspecified), the Potency is inactive: > 76.9 µM.

Turning to `CCOC(=O)c1cccc(NC(=O)CSc2nnc(COc3ccc(Cl)cc3)o2)c1`, the Potency was inactive: > 76.9 µM.

`O=C(NCCN1CCOCC1)C1CC(=O)N(c2ccc(F)c(Cl)c2)C1` (stereo unspecified): the Potency was inactive: > 15.4 µM.

Take `O=C(CSc1nc(-c2ccccc2)cc(=O)[nH]1)NCc1ccc2c(c1)OCO2`: the Potency was inactive: > 76.9 µM.

As to `O=C(CS(=O)(=O)c1cn(Cc2cccc(F)c2)c2ccccc12)N1CCOCC1`, the Potency is inactive: > 76.9 µM.

For `COc1cccc(OCc2nnc(SCC(=O)NCc3ccco3)n2CCc2ccccc2)c1`, the Potency entry is “inactive”.

For `Cc1ccc(C(C(=O)NC2CCCCC2)N2CCCC2)cc1` (stereo unspecified), the Potency was inactive: > 76.9 µM.

With `C=CCn1c(SC(C)C(=O)NC2(C#N)CCCCC2)nnc1-c1ccc(OC)cc1` (stereo unspecified), the Potency was inactive: > 76.9 µM.

For the compound `COc1cccc(C2NC(CC(C)C)(C(=O)O)C3C(=O)N(Cc4ccccc4)C(=O)C23)c1O` (stereo unspecified), the Potency is inactive: > 76.9 µM.

As to `CCCC(=O)Nc1c2c(nn1-c1ccc(OC)cc1)CS(=O)C2` (stereo unspecified), the Potency was inactive: > 76.9 µM.

For `CCOC(=O)c1cnn(CCOC(=O)C(C)(C)C)c1NC(=O)C(C)(C)C`, the Potency is inactive: > 76.9 µM.

For `CCC(=O)Nc1ccc(NC(=O)CSc2nnnn2C(C)C)cc1`, the Potency was inactive: > 76.9 µM.

For `CCCc1nc2ccccc2c(=O)n1/N=C/c1ccc(O)c(O)c1`, the Potency is inactive: > 76.9 µM.

In the case of `CC(C)CCNc1nc(N2CCCC2)c2c(c1C#N)CCN(C)C2`, the Potency is active: 12.7 µM.

For the compound `O=C(NCc1ccccc1Br)c1ccco1`, the Potency is inactive: > 76.9 µM.

`COc1c(C)cccc1C(=O)Nc1ccc(N2CCN(S(C)(=O)=O)CC2)cc1`: the Potency is inactive: > 76.9 µM.

As for `CCc1ccccc1NC(=O)C1CCCN(S(=O)(=O)c2c(C)noc2C)C1` (stereo unspecified), the Potency was inactive: > 76.9 µM.

For `CCC(=O)NCCSc1c[nH]c2ccccc12`, the Potency was inactive: > 76.9 µM.

As for `O=C(C1=COCCO1)N1CCN(C(c2ccccc2)c2ccccc2)CC1`, the Potency is inactive: > 76.9 µM.

For the compound `CCOC(=O)c1cccnc1SCC(=O)NC(C)CC` (stereo unspecified), the Potency is inactive: > 76.9 µM.

For `COCC(=O)N(C)C1(c2nnnn2CCOC(=O)Nc2ccc(Cl)cc2)CCCC1`, the Potency was inactive: > 76.9 µM.

Consider `OCCN1CCN(c2ncnc3c2sc2nc(N4CCOCC4)c4c(c23)CCC4)CC1`, for which the Potency is inactive: > 76.9 µM.

Turning to `CCN(CC)CCCNc1nnc(C)c(=O)[nH]1`, the Potency is inactive: > 76.9 µM.

In the case of `CCC1Oc2ccc(C)cc2N(CC(=O)NCCN2C(C)CCCC2C)C1=O` (stereo unspecified), the Potency was inactive: > 76.9 µM.

As for `CCC1CCc2sc(C(=O)O)cc2C1` (stereo unspecified), the Potency was inactive: > 76.9 µM.

`COc1cc(C2C(C(=O)c3ccc(C)o3)=C(O)C(=O)N2c2cc(C)on2)ccc1O` (stereo unspecified): the Potency was inactive: > 76.9 µM.

Regarding `Cc1ccc(OCC(=O)N2CCN(C(=O)CCC3CCCC3)CC2)cc1`, the Potency is inactive: > 76.9 µM.

With `Cc1nn(-c2ccc3nnc(Br)n3n2)c(C)c1Br`, the Potency is inactive: > 76.9 µM.

Regarding `CC(C)CC(=O)Nc1ccccc1N1CCOCC1`, the Potency is inactive: > 76.9 µM.

For the compound `CCSc1nc2cc(OC)c(OC)cc2c(=O)n1CC`, the Potency was inactive: > 76.9 µM.

Regarding `CCOC(=O)C1C(=O)NC(N2CCN(Cc3ccccc3)CC2)=NC1c1ccco1` (stereo unspecified), the Potency is inactive: > 76.9 µM.

Take `CCCC(c1nnnn1C1CCCC1)N1CCN(c2ccccc2F)CC1` (stereo unspecified): the Potency was inactive: > 76.9 µM.

`O=C(CN(CC1CCCO1)C(=O)CNS(=O)(=O)c1ccccc1)NCc1ccccc1` (stereo unspecified): the Potency was inactive: > 76.9 µM.

Turning to `COc1cccc(NC(=O)C2CCCN2C(=O)Nc2cccc(F)c2)c1` (stereo unspecified), the Potency was inactive: > 76.9 µM.

With `Cc1csc(SCC(=O)Nc2c(C)n(C)n(-c3ccccc3)c2=O)n1`, the Potency was inactive: > 76.9 µM.

`Cn1c(=O)c2c(nc(SCCCO)n2Cc2ccccc2Cl)n(C)c1=O`: the Potency was inactive: > 76.9 µM.

With `O=C(O)CCSCC(=O)c1ccc2c(c1)OCCO2`, the Potency was inactive: > 76.9 µM.

Regarding `CCCN(CCC)CCCNC(=O)CC(C(=O)N1CCc2ccccc21)n1ccnc1` (stereo unspecified), the Potency was inactive: > 76.9 µM.

For `CSc1ccc(Cl)c(C(=O)OCC(=O)N2CC(C)OC(C)C2)c1` (stereo unspecified), the Potency is inactive: > 76.9 µM.

Regarding `O=C(Nc1ccc(C(=O)N2CCCC2)cc1)c1ccccc1F`, the Potency is inactive: > 76.9 µM.

As to `Cc1ccc2c(c1)N(CCC(=O)NCc1ccc3c(c1)OCO3)C(=O)CO2`, the Potency is inactive: > 76.9 µM.

With `CN1CCN(S(=O)(=O)c2ccc(=O)[nH]c2)CC1`, the Potency is inactive: > 76.9 µM.

Consider `Cc1csc(SCC(=O)N2CCN(S(=O)(=O)c3ccccc3)CC2)n1`, for which the Potency was inactive: > 76.9 µM.

With `COC(=O)c1c(C(=O)OC)c2cc(C)ccn2c1Cl`, the Potency is inactive: > 76.9 µM.

For `COc1ccc(C2C3=C(CC(C)(C)CC3=O)Nc3c2c(=O)[nH]c2nc(C)nn32)cc1` (stereo unspecified), the Potency was inactive: > 76.9 µM.

In the case of `O=C(c1ccc2c(=O)n(CC3CCCO3)c(=S)[nH]c2c1)N1CCN(c2ccccc2)CC1` (stereo unspecified), the Potency was inactive: > 76.9 µM.
